# Laboratory results as given in the supplement of paper PMC10037445.
# The full ranking holds about 2,900 compounds; the median of “NF-kB SEAP reporter activity, fold change vs agonist alone” is about 0.99, and the highest 2% start at about 2.6. The list shows a part of the results.
# Experiments:
# [1] = tested on: RAW-Dual; experiment: NF-kB SEAP reporter activity, fold change vs agonist alone; higher = enhanced NF-kB activity
# How it was run: (§1)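 Cytotoxic wells were those whose IncuCyte confluency was below 70% of agonist controls in both mask sets. The cells were RAW-Dual macrophages at 50,000 cells/well in DMEM on 384-well plates, dosed with 50 nL of library stock by pin tool, stimulated with a PRR agonist 1 h later, and kept at 37 °C, 5% CO2 for 20 hours. IRF and NF-κB reporter activity, as fold change over agonist-alone wells, came from supernatant read by QuantiLuc luminescence and QuantiBlue absorbance, respectively.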
# [2] = tested on: RAW-Dual; experiment: NF-kB SEAP reporter activity, fold change vs agonist alone; cytotoxicity flag (confluency mask): not cytotoxic; higher = enhanced NF-kB activity
# How it was run: as §1
# [3] = tested on: RAW-Dual; experiment: NF-kB SEAP reporter activity, fold change vs agonist alone; cytotoxicity flag (confluency mask): cytotoxic (confluency <70% of control); higher = enhanced NF-kB activity
# How it was run: as §1
# [4] = library stock concentration (final ~1000-fold dilution): 2 mM, cytotoxicity flag (confluency mask): not cytotoxic, agonist: Imiquimod (TLR7) […]
# [5] = library stock concentration (final ~1000-fold dilution): 2 mM, cytotoxicity flag (confluency mask): not cytotoxic, agonist: MPLA (TLR4) […]
# [6] = library stock concentration (final ~1000-fold dilution): 10 mM, cytotoxicity flag (confluency mask): not cytotoxic, agonist: Imiquimod (TLR7) […]
# [7] = library stock concentration (final ~1000-fold dilution): 10 mM, cytotoxicity flag (confluency mask): not cytotoxic, agonist: MPLA (TLR4) […]
# [8] = agonist: ODN 1826 (TLR9) 0.5 ug/mL
# [9] = agonist: Pam2CSK4 (TLR2/6) 0.1 ug/mL
# [10] = agonist: Pam3CSK4 (TLR2/1) 0.1 ug/mL
# [11] = library stock concentration (final ~1000-fold dilution): 10 mM, cytotoxicity flag (confluency mask): cytotoxic (confluency <70% of control), agonist: Imiquimod (TLR7) […]
# [12] = library stock concentration (final ~1000-fold dilution): 10 mM, cytotoxicity flag (confluency mask): cytotoxic (confluency <70% of control), agonist: MPLA (TLR4) […]
smiles,measurement,setting,value
Cn1cc(-c2cnn3c(N)c(Br)c(C4CCCNC4)nc23)cn1 (stereo not drawn),NF-kB SEAP reporter activity,[1]; [4],1.09
same,NF-kB SEAP reporter activity,[1]; [5],1.35
Cc1coc2c1C(=O)C(=O)c1c-2ccc2c(C)cccc12,NF-kB SEAP reporter activity,[1]; [6],0.814
same,NF-kB SEAP reporter activity,[1]; [7],0.87
Cc1coc2c1C(=O)C(=O)c1c-2ccc2c(C)cccc12 (library stock concentration (final ~1000-fold dilution): 10 mM),NF-kB SEAP reporter activity,[2]; agonist: LPS (TLR4) 0.1 ug/mL,0.723
same,NF-kB SEAP reporter activity,[2]; [8],0.793
same,NF-kB SEAP reporter activity,[2]; [9],0.955
same,NF-kB SEAP reporter activity,[2]; [10],0.996
CCC(C)SSc1ncc[nH]1 (stereo not drawn) (library stock concentration (final ~1000-fold dilution): 10 mM),NF-kB SEAP reporter activity,[2]; agonist: LPS (TLR4) 0.1 ug/mL,4.74
same,NF-kB SEAP reporter activity,[2]; [8],2.67
same,NF-kB SEAP reporter activity,[2]; [9],1.44
same,NF-kB SEAP reporter activity,[2]; [10],2.7
CCC(C)SSc1ncc[nH]1 (stereo not drawn),NF-kB SEAP reporter activity,[1]; [6],1.51
same,NF-kB SEAP reporter activity,[1]; [7],1.85
COc1cc(Nc2nc3ccccc3nc2NS(=O)(=O)c2ccc(NC(=O)c3ccc(C)c(OC)c3)cc2)cc(OC)c1 (library stock concentration (final ~1000-fold dilution): 10 mM),NF-kB SEAP reporter activity,[2]; agonist: LPS (TLR4) 0.1 ug/mL,2.08
same,NF-kB SEAP reporter activity,[2]; [8],1.04
same,NF-kB SEAP reporter activity,[2]; [9],0.51
same,NF-kB SEAP reporter activity,[2]; [10],0.561
COc1cc(Nc2nc3ccccc3nc2NS(=O)(=O)c2ccc(NC(=O)c3ccc(C)c(OC)c3)cc2)cc(OC)c1,NF-kB SEAP reporter activity,[1]; [6],0.914
same,NF-kB SEAP reporter activity,[1]; [7],0.963
CC1CCN(CCC2CCCN2S(=O)(=O)c2cccc(O)c2)CC1.Cl (stereo not drawn) (library stock concentration (final ~1000-fold dilution): 10 mM),NF-kB SEAP reporter activity,[2]; agonist: LPS (TLR4) 0.1 ug/mL,0.989
same,NF-kB SEAP reporter activity,[2]; [8],0.894
same,NF-kB SEAP reporter activity,[2]; [9],1.02
same,NF-kB SEAP reporter activity,[2]; [10],1.11
CC1CCN(CCC2CCCN2S(=O)(=O)c2cccc(O)c2)CC1.Cl (stereo not drawn),NF-kB SEAP reporter activity,[1]; [6],1.07
same,NF-kB SEAP reporter activity,[1]; [7],1.08
O=C1CCc2cc(OCCCCc3nnnn3C3CCCCC3)ccc2N1,NF-kB SEAP reporter activity,[1]; [6],0.931
same,NF-kB SEAP reporter activity,[1]; [7],1.12
O=C1CCc2cc(OCCCCc3nnnn3C3CCCCC3)ccc2N1 (library stock concentration (final ~1000-fold dilution): 10 mM),NF-kB SEAP reporter activity,[2]; agonist: LPS (TLR4) 0.1 ug/mL,1.27
same,NF-kB SEAP reporter activity,[2]; [8],1.31
same,NF-kB SEAP reporter activity,[2]; [9],1.11
same,NF-kB SEAP reporter activity,[2]; [10],1.29
CCN1CC(CCN2CCOCC2)C(c2ccccc2)(c2ccccc2)C1=O (stereo not drawn),NF-kB SEAP reporter activity,[1]; [7],1.11
CCN1CC(CCN2CCOCC2)C(c2ccccc2)(c2ccccc2)C1=O (stereo not drawn) (library stock concentration (final ~1000-fold dilution): 10 mM),NF-kB SEAP reporter activity,[2]; agonist: LPS (TLR4) 0.1 ug/mL,1.08
same,NF-kB SEAP reporter activity,[2]; [8],0.914
same,NF-kB SEAP reporter activity,[2]; [9],1.01
same,NF-kB SEAP reporter activity,[2]; [10],0.891
CCCC1CC(C(=O)NC(C(C)Cl)C2OC(SC)C(O)C(O)C2O)N(C)C1.Cl (stereo not drawn) (library stock concentration (final ~1000-fold dilution): 10 mM),NF-kB SEAP reporter activity,[2]; agonist: LPS (TLR4) 0.1 ug/mL,1.11
same,NF-kB SEAP reporter activity,[2]; [8],1.04
same,NF-kB SEAP reporter activity,[2]; [9],1.06
same,NF-kB SEAP reporter activity,[2]; [10],1.08
CCCC1CC(C(=O)NC(C(C)Cl)C2OC(SC)C(O)C(O)C2O)N(C)C1.Cl (stereo not drawn),NF-kB SEAP reporter activity,[1]; [6],0.95
same,NF-kB SEAP reporter activity,[1]; [7],1.06
COc1cc(NS(C)(=O)=O)ccc1Nc1c2ccccc2nc2ccccc12.Cl (library stock concentration (final ~1000-fold dilution): 10 mM),NF-kB SEAP reporter activity,[3]; agonist: LPS (TLR4) 0.1 ug/mL,2.6
same,NF-kB SEAP reporter activity,[3]; [8],0.68
same,NF-kB SEAP reporter activity,[3]; [9],1.05
same,NF-kB SEAP reporter activity,[3]; [10],0.776
COc1cc(NS(C)(=O)=O)ccc1Nc1c2ccccc2nc2ccccc12.Cl,NF-kB SEAP reporter activity,[1]; [11],2.58
same,NF-kB SEAP reporter activity,[1]; [12],2.51
Cc1cnc(CNC(=O)c2c(=O)c3ccc(N4CCCN(C)CC4)nc3n3c2sc2ccccc23)cn1,NF-kB SEAP reporter activity,[1]; [4],0.893
same,NF-kB SEAP reporter activity,[1]; [5],0.975
Cc1cnc(CNC(=O)c2c(=O)c3ccc(N4CCCN(C)CC4)nc3n3c2sc2ccccc23)cn1 (library stock concentration (final ~1000-fold dilution): 2 mM),NF-kB SEAP reporter activity,[2]; agonist: LPS (TLR4) 0.1 ug/mL,1.12
same,NF-kB SEAP reporter activity,[2]; [8],1.16
same,NF-kB SEAP reporter activity,[2]; [9],0.641
same,NF-kB SEAP reporter activity,[2]; [10],0.697
O=C1/C(=C/c2ccncc2)CCC/C1=C\c1ccncc1 (library stock concentration (final ~1000-fold dilution): 10 mM),NF-kB SEAP reporter activity,[3]; agonist: LPS (TLR4) 0.1 ug/mL,0.237
same,NF-kB SEAP reporter activity,[3]; [8],0.759
same,NF-kB SEAP reporter activity,[3]; [9],0.537
same,NF-kB SEAP reporter activity,[3]; [10],0.963
O=C1/C(=C/c2ccncc2)CCC/C1=C\c1ccncc1,NF-kB SEAP reporter activity,[1]; [12],0.323
O=C(C=Cn1cnc(-c2cc(C(F)(F)F)cc(C(F)(F)F)c2)n1)NNc1cnccn1 (library stock concentration (final ~1000-fold dilution): 10 mM),NF-kB SEAP reporter activity,[2]; agonist: LPS (TLR4) 0.1 ug/mL,0.255
same,NF-kB SEAP reporter activity,[2]; [8],0.841
same,NF-kB SEAP reporter activity,[2]; [9],0.42
same,NF-kB SEAP reporter activity,[2]; [10],0.428
O=C(C=Cn1cnc(-c2cc(C(F)(F)F)cc(C(F)(F)F)c2)n1)NNc1cnccn1,NF-kB SEAP reporter activity,[1]; [6],1.41
same,NF-kB SEAP reporter activity,[1]; [7],0.523
Cc1nc2n(c(=O)c1CCN1CCC(c3noc4cc(F)ccc34)CC1)CCCC2,NF-kB SEAP reporter activity,[1]; [4],0.96
same,NF-kB SEAP reporter activity,[1]; [5],1.07
Cc1nc2n(c(=O)c1CCN1CCC(c3noc4cc(F)ccc34)CC1)CCCC2 (library stock concentration (final ~1000-fold dilution): 2 mM),NF-kB SEAP reporter activity,[2]; agonist: LPS (TLR4) 0.1 ug/mL,1.34
same,NF-kB SEAP reporter activity,[2]; [8],1.06
same,NF-kB SEAP reporter activity,[2]; [9],1.15
same,NF-kB SEAP reporter activity,[2]; [10],1.01
COc1cc2c(cc1O)CCC1C2CCC2(C)C(O)CCC12 (stereo not drawn) (library stock concentration (final ~1000-fold dilution): 10 mM),NF-kB SEAP reporter activity,[3]; agonist: LPS (TLR4) 0.1 ug/mL,2.54
same,NF-kB SEAP reporter activity,[3]; [8],1.73
same,NF-kB SEAP reporter activity,[3]; [9],1.75
same,NF-kB SEAP reporter activity,[3]; [10],1.34
COc1cc2c(cc1O)CCC1C2CCC2(C)C(O)CCC12 (stereo not drawn),NF-kB SEAP reporter activity,[1]; [11],2
same,NF-kB SEAP reporter activity,[1]; [12],1.69
